# Read counts are not given, so values of variants with three or more changes are uncertain.
# B1: CPEB3 Ribozyme (parent)
# chain: UAACAGGGGGCCACAGCAGAAGCGUUCACGUCGCAGCCCCUGUCAGAUUCUGGUGAAUCUGCGAAUUCUGCUGUAUAUCUC
# Variants of: B1
# Test: self-cleavage, relative activity (ratio to wild type); higher = more cleavage; in vitro, sequencing
# In short: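 Relative activity was defined as the cleaved/total read fraction for a variant divided by the same fraction for the unmutated ribozyme. CPEB3 self-cleaving ribozyme libraries were made by rounds of error-prone PCR, barcoded, and transcribed in vitro with T7 RNA polymerase for 5 hours at 37°C, and cleavage ran through transcription plus a 15 min DNase I step before EDTA. Illumina sequencing of template-switched reverse transcripts gave the reads, and DNA sequencing mapped the barcodes. Averages come from three batches, using variants with at least 5 reads.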
row,Variant,self-cleavage
1,A5G A20G U43A,0.51
2,A5G A20G U43C U58C U60C U67A,0.2
3,A5G A20G U48A A57G C62A,0.3
4,A5G A20G U51A A64G,0.43
5,A5G A20G U58A U69A,0.16
6,A5G A20G U58C U67A U72C,0.08
7,A5G A20U A21G U58C U69C,0.68
8,A5G A20U A28G U69C U80C C81A,0.07
9,A5G A20U A35U C44A,0.29
10,A5G A20U A35U U41A A45G U72A,0.07
11,A5G A20U C29U,0.4
12,A5G A20U C29U A35G A64G U67C U72A,0.08
13,A5G A20U C29U C38U,0.27
14,A5G A20U C38U A47U U69G U72A,0.15
15,A5G A20U C39G U41C U69A U80C,0.06
16,A5G A20U C50A,0.39
17,A5G A20U G30A U48C U49C,0.06
18,A5G A20U G46A C59U,0.39
19,A5G A20U G63U,0.07
20,A5G A20U U25C,0.5
21,A5G A20U U31A G55A G73A,0.58

row,Variant,self-cleavage
1,A5G A20U U31A U41C U49A G55A G73A,0
2,A5G A20U U41A U67C,0.09
3,A5G A20U U43A U54C A57G U58C U60C,0.31
4,A5G A20U U43C A77G,0.05
5,A5G A20U U49C U54C U80A,0.58
6,A5G A20U U51C A56G U72A,0.09
7,A5G A20U U60C,0.19
8,A5G A20U U80G,0.23
9,A5G A21G A28U C29U A47G U54C U76A,0.08
10,A5G A21G A28U U51C A64G,0.7
11,A5G A21G A35U C40U A56U U74A A75U,0.09
12,A5G A21G A35U U66C,0.25
13,A5G A21G A45G A47U U67C U72C U80C,0.06
14,A5G A21G A45G A64G,0.05
15,A5G A21G A45G A65C,0.42
16,A5G A21G A56G A65G,0.1
17,A5G A21G A56G U58C U69A,0.1
18,A5G A21G A57G,0.53
19,A5G A21G A65G U74C,0.09
20,A5G A21G C23U C50A U60A G73A,0.08
21,A5G A21G C23U U54C U72C,0.25

row,Variant,self-cleavage
1,A5G A21G C27U U41A U67C U72A,0.07
2,A5G A21G C32U U51C U54C A77G,0
3,A5G A21G C34G,0.53
4,A5G A21G C38A U60A,0.38
5,A5G A21G C40U U41A,0.4
6,A5G A21G C40U U78C,0.06
7,A5G A21G G33U,0.27
8,A5G A21G G53A U54G,0.7
9,A5G A21G G63U,0.32
10,A5G A21G U26A A28U C40A G63A A64C,0.13
11,A5G A21G U26A C40U U48C,0.07
12,A5G A21G U26C C27G,0.41
13,A5G A21G U26C G53A A56G A57G,0.06
14,A5G A21G U26C U48C C59U,0.39
15,A5G A21G U26G A64G,0.33
16,A5G A21G U31A A47U C50G G61A A65U,0.1
17,A5G A21G U31A U49C U78C,0.07
18,A5G A21G U31C U51A C81U,0.11
19,A5G A21G U41A A56G U67A G73A,0.32
20,A5G A21G U41C A45G U72A,0.07
21,A5G A21G U41C A57U,0.24

row,Variant,self-cleavage
1,A5G A21G U41C U58G C68A,0.17
2,A5G A21G U43C A57U G70C,0.05
3,A5G A21G U43C U69C,0.22
4,A5G A21G U48C A57G A75G,0.48
5,A5G A21G U58A U69A,0.07
6,A5G A21G U60A,0.14
7,A5G A21G U60C U69C,0.42
8,A5G A21G U67A U69C U74C,0.31
9,A5G A21U A35G C62U,0.37
10,A5G A28C U51A,0.26
11,A5G A28C U72C,0.74
12,A5G A28C U80A,0.45
13,A5G A28G A35U U41A A75U,0.11
14,A5G A28G A35U U58A U72G,0.11
15,A5G A28G A45G U48A C59A U67C,0.26
16,A5G A28G A45U,0.11
17,A5G A28G A47G A77G U80A,0.22
18,A5G A28G A47G U72A A77U,0.06
19,A5G A28G A57G,0.16
20,A5G A28G A64G,0.52
21,A5G A28G A64G C71A,0.16

# Reference: the RNAGym collection of RNA variant scans (doi:10.1093/nar/gkz1192)
